According to the supplement of paper PMC11417369:
The list shows a part of the results.

What follows are sequences tested on PF3D7_0420300 AP2 domain 1 (GST-tagged) (assay: gcPBM binding intensity (ln(normalized median fluorescence intensity)); higher = stronger DNA binding).
In short: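 Binding of GST-tagged P. falciparum DNA-binding domains, expressed in E. coli and used at about 25 μg on average, was carried out for 1 h in 1× PBS containing 1% milk, 0.2 mg/ml BSA, 0.5% salmon testes DNA and 0.03% Triton X-100. The target was an Agilent 4 × 180k array of primer-extended double-stranded 36-bp intergenic genomic probes plus negative controls, read with Alexa488 anti-GST antibody at 488 nm. Binding intensity is the highest Masliner-normalised natural-log median intensity across replicate spots of either probe orientation.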

Sequence | gcPBM binding intensity (ln)
TACGTAAATGTGTGTGTGCACGTTATATATTAATAT [GTGCAC_site9976] | 9.91
ACATATATTATTATATGTACATATATTAATTATATA [XGTACX_site3400] | 9.09
ATCATTTTTAAAGGAACACACAAAAAAAATTAAAAT [CACACA_site4878] | 9.46
ACTCTCTTATATTAAACACACATATATATCTGTATA [CACACA_site5489] | 9.66
CTTCTCTTTTTTATCATGCACTTTTTGTATAATAAT [GTGCAC_site9834] | 9.3
GTAAAATATATAAAATGTACATATATTATATATATA [XGTACX_site489] | 9.18
CATTTAAAAGATAAAACACACATACTAATAAAAAAC [CACACA_site5417] | 9.87
TTTCTTTATTAAAATATTTTACATATATAATATACG [TGCATGCA_negctrl_site564] | 9.03
GATGTTCATCACTACACACACAAAGAAATATATATA [CACACA_site2684] | 9.76
AAAGAAAAAAAATATAAAAAATAAAAAATAAAACAA [CACACA_negctrl_site374] | 9.33
TTGTATTTCCTTAGGAGTACACATAAATAAGTAAAT [XGTACX_site6677] | 9.19
TAATATATGTATATATGTACATATAAATGTTATAGA [XGTACX_site2721] | 9.19
TTGGTATAAAATTATAGTACATAAGGTAAATATAAA [XGTACX_site4698] | 9.28
ATTTATATGTGGAGCAGTACGCACTCTCACAATTAA [XGTACX_site7252] | 9.06
TAAAAATTATATATCACACATATATGTCAGTATACA [CACACA_site4624] | 9.21
CACTACATTATGTCATAAATGCATACATAAACATAT [GTGCAC_negctrl_site513] | 9.18
TTTATATTTCAATTTTGTGCTTCGCAAATTGAGAGG [TGCATGCA_negctrl_site327] | 8.74
TATAACATAATATAGACACACACATGTACTTATGCC [CACACA_site8547] | 9.69
GTGTTAATTTTAAATTGTACAAAATTTATATGATTT [XGTACX_site348] | 9.05
GAAAAGCATAGATGCACACATATATATATATATATA [CACACA_site2169] | 9.26
ATATACTTTTTTTTTTTTTTTTTAACGTTATTTATG [CACACA_negctrl_site1277] | 9.45
TTACACATATATATAAATATATATAAATATATATAT [CACACA_negctrl_site150] | 9.08

Sequence | gcPBM binding intensity (ln)
AAAATATATGAAAACAGTACATATAAAAATTAAAAA [XGTACX_site2594] | 9.31
ATTAATTTTGGTTCATGTACATAAGAAATAAACTCT [XGTACX_site4534] | 9.12
ATTTTTATACGTTTTTTTTTTTTTTTTTTTTATTTA [CACACA_negctrl_site1142] | 9.62
TACAGACAGAAATGCACACACATATATATATATATA [CACACA_site2283] | 9.53
TATTTGTTTGAATTTTTTTTTTTTTTTTTTTATGTG [CACACA_negctrl_site966] | 9.12
TTTAAATAATCTAGGTGTACTTTCCTTTATAAATGT [XGTACX_site7859] | 9.18
AGAATACATATATGAACACACAGAGTTTTAAAAAAT [CACACA_site2735] | 9.67
TATTTCAATATATACCTTTGCTTTTTTAATATACTT [XGTACX_negctrl_site556] | 9.48
TCAATATAAATTAGTTGTACAGTTTTTTTTAATTAT [XGTACX_site6358] | 9.18
AATATAAATAAAAACACACACAATGGTACCTATATA [CACACA_site7688] | 9.99
ATTTTTTGGAAAAGAAGTACAATGGATTTATACGTT [XGTACX_site891] | 9.09
ATCAAATAATAGCAAACACACAAAAAATAAAAAAAA [CACACA_site4146] | 9.82
AATGTTTTTTTTTTTTTTTTTTTTTATTTATTGTTA [CACACA_negctrl_site505] | 9.48
TAACATATAATATTATGTACATATATACATATATAA [XGTACX_site7467] | 9.09
AAAAAATCACGACACACACACACACTAAAAAAAAAA [CACACA_site6792] | 10.1
TTAATTTTTGAAGGTACACACTAATATATTAAATAT [CACACA_site4791] | 9.27
AAAACAGACAAACACACACACACATATATATATATA [CACACA_site3393] | 10
CTTTTAATTATAAAATGTACTTAAAAATAATAATAC [XGTACX_site635] | 9.05
AAAATGAAACAAATATGTACACATATAAATATTTCC [XGTACX_site54] | 9.32
TTATCCCCCTATCATTGTACATTAATACAAACTAAA [XGTACX_site5630] | 9.54
ATAAAGAAAATATGGAGTACATTTATATCCAATATA [XGTACX_site3085] | 9.17
TTTTATGAAAAATGGCTTATCTGTAAAGAAGTGGAG [CACACA_negctrl_site1586] | 9.11

Sequence | gcPBM binding intensity (ln)
ATATTTGTAATTATTAAACACACACTAATTATATAT [CACACA_site8803] | 9.63
AAATATATACTACCGATGCACTAAATATAAACACAT [GTGCAC_site9777] | 9.67
AAGAATTATATATTCACACAAAAAAAAAGTAAAAGA [CACACA_site5335] | 9.5
TATAATATATATATATGTACATATTATTTACATATA [XGTACX_site7312] | 9.15
AAAAAAAAAAAAAAGAGTACATTTATTTATATATCT [XGTACX_site2381] | 9.06
AATATATTAAATCTTACACACTAAAAAATATGTAAC [CACACA_site4325] | 9.47
TGTTTAACACATGTTTCAAACAAAAAAAAAAAGACA [CACACA_negctrl_site1356] | 9.2
TTTTAACATAGAAGTACACACATATAATCAATCATA [CACACA_site5313] | 9.6
TTTTAAATTTTTTAAAGTACACGTCGAAAAGGTATA [XGTACX_site76] | 8.97
TATTTATTTATTTATGCATGCATGAATAATTTTTAC [TGCATGCA_site31] | 9.13
ATTATTTAGAAATGAGCACACAAAAAGAAGAATTTT [CACACA_site7913] | 9.33
ACAAGAGAAGTAATTGCACACGTTGTTTCTTTTTCT [CACACA_site35] | 9.55
CCACATATACAAAACACACACACAACGTTTTAATAA [CACACA_site1978] | 9.95
ATAATAATATAAAATACACACCTATTATTTTTACAA [CACACA_site6069] | 9.47
TCACTATAGTAATTTACACACATTTGAAGAAAATGT [CACACA_site7626] | 9.48
TTATCATTTGGACACGCACACACACCGAAAAAGAAA [CACACA_site8008] | 9.85
TTTTTTGCTAAAAAGAGTACTAATAAAAAATTTATT [XGTACX_site5235] | 8.77
TTTTTGTAATTATATTAATATATATATATATATATA [CACACA_negctrl_site198] | 9.11
AATAATTTAAGGAATACACACAAGAAAAAAATAAGA [CACACA_site60] | 9.9
GAAAACATTAAAAGTTAGATCATAAGAAAAGAATAT [GTGCAC_negctrl_site726] | 9.32
GTTCATCACATATACACATGCATATTCTAATATGTA [TGCATGCA_site809] | 9.37
ACATTATATAAAATATGTACATATAAAAAATTCTAT [XGTACX_site1617] | 9.25

Sequence | gcPBM binding intensity (ln)
CATATATGTGATAACACGCACACAAATGTATAGAAT [CACACA_site2594] | 9.52
TCTAATGATATATACACACACATATAGATTTATATA [CACACA_site7044] | 9.64
ATTTTTCTAAAATACTGTACAAAGGTGCATAAAAAG [XGTACX_site4425] | 9.03
ATATTTATGGAATATACACACATGTATAATTATATA [CACACA_site2033] | 9.44
TTTTCTGTTTTCATTACACACCTTACAAGAACAATA [CACACA_site2158] | 9.34
AAATAAGAAAAAGCGCGTACACATAACATTTTTATA [XGTACX_site8807] | 9.49
TGCTTTTCTTTTTGCACACTTATGCATATATATATA [CACACA_site2583] | 9.54
TTTATTCAAGGAATAGTGCATAATAATAAGTATTAT | 9.11
TGTATTCTCTTAGTAGTGCATTTGAAGATTATATAA | 9.14
TAGAATATGTTTAGTTGTACAAAACAAAATGGAATT [XGTACX_site5293] | 9.17
CACATAAAAAAATAAACACACATATGTATATATATA [CACACA_site3177] | 9.75
ATTTATTTTTTGTGTTCACACATTAGTATCATCTAT [CACACA_site5274] | 9.49
TTTTTTTTTCGCTTTTGTACACATTTTATAGAACAG [XGTACX_site2416] | 9.4
TATTATATATATGGAAGTACAGGTATATCGTTTTTC [XGTACX_site3771] | 9.29
TTTTCCCTTAACCTCTGTACATATAATTTTCTTTCC [XGTACX_site4180] | 9.3
AAATATTTTTTAATTGTTCACTTGGTGGATCATTAA [CACACA_negctrl_site922] | 8.99
TATCCATTATTTAAAAGTACAAAAAACGATTTACAC [XGTACX_site2979] | 9.27
ATTTTTTTTTTTTTTTCATGAAATTTTTTTTTTTTT [CACACA_negctrl_site1069] | 9.24
ATATATTTATTATTAGGTACACATATATATATATAT [XGTACX_site5045] | 9.36
TTAAAAAAAAATAAAGGTACACGGAGAAATCCTTTT [XGTACX_site7509] | 9.18
AACCACCACACCATCACACATAAGATTAGACGAGTA [CACACA_site6063] | 9.25
TGTAGTAATGCTTATTGTACATATACATTTCTTACA [XGTACX_site219] | 9.28
